{
  "source": "the supplement of paper PMC11417369",
  "note": "This is one part of the list.",
  "data": [
    {"test_system": "PfHDP1 homeodomain (GST-tagged)", "assay": "gcPBM binding intensity (ln(normalized median fluorescence intensity)); higher = stronger DNA binding", "summary_of_the_method": "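Binding intensity values are the highest Masliner-normalised natural-log median intensity among replicate spots of either probe orientation. The binding step lasted 1 h in 1× PBS with 1% milk, 0.2 mg/ml BSA, 0.5% salmon testes DNA and 0.03% Triton X-100, using GST-tagged P. falciparum DNA-binding domains expressed in E. coli on an Agilent 4 × 180k array of primer-extended double-stranded 36-bp intergenic genomic probes plus negative controls. Alexa488 anti-GST antibody and a 488 nm scan detected bound protein.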", "values": [
      {"sequence": "TATCTGTAAACATATTCACACACATAAATTCGCATA [CACACA_site8557]", "gcPBM binding intensity (ln)": 6.6},
      {"sequence": "TACACTAATGACAGTTGTACTTTTATTCGATAGAAT [XGTACX_site738]", "gcPBM binding intensity (ln)": 6.19},
      {"sequence": "TATATATATATAATATGTACATATATACATGCCTTG [XGTACX_site2791]", "gcPBM binding intensity (ln)": 8.74},
      {"sequence": "TCGAAAATGACGAATGGTACAGTATGTATAAAAATA [XGTACX_site1258]", "gcPBM binding intensity (ln)": 6.5},
      {"sequence": "ACTTTTTTTTTGTGTGTGCACTCGATTATATACATA [GTGCAC_site9846]", "gcPBM binding intensity (ln)": 10.2},
      {"sequence": "ATATATTATATATGCGCACACACGAATTTTTTTTTT [CACACA_site2393]", "gcPBM binding intensity (ln)": 7.8},
      {"sequence": "ATTAAAGTTATAAATTCACACATGTAAATGTATTTA [CACACA_site5279]", "gcPBM binding intensity (ln)": 6.3},
      {"sequence": "GTTATATATGATGGAAGCACTTGGAAGAGGGAAATA [CACACA_negctrl_site1831]", "gcPBM binding intensity (ln)": 6.84},
      {"sequence": "GATAAATATTTAATATGTACATATATTATATATATA [XGTACX_site117]", "gcPBM binding intensity (ln)": 7.28},
      {"sequence": "TATATACACACCGTGTGTACATATACATTAACTGAA [XGTACX_site7120]", "gcPBM binding intensity (ln)": 6.96},
      {"sequence": "AAAAATAAAAAAATAAAAAATAAAAAAATAAAAAAT [CACACA_negctrl_site1425]", "gcPBM binding intensity (ln)": 6.64},
      {"sequence": "AAAAAGAAAAAGAGCACACAAAAATATTTAACCTTT [CACACA_site2747]", "gcPBM binding intensity (ln)": 6.54},
      {"sequence": "ATATATATATGTATGTATATATATATATATATGTTT [CACACA_negctrl_site248]", "gcPBM binding intensity (ln)": 8.61},
      {"sequence": "TTTCTTTTTTTTTGAAGTACATAAAAATATAAAAAA [XGTACX_site311]", "gcPBM binding intensity (ln)": 6.32},
      {"sequence": "TAAATTTTTTCTTTTTGTACATATTTTAAAAATGTT [XGTACX_site7526]", "gcPBM binding intensity (ln)": 6.36},
      {"sequence": "AATATTATAAAATATTGTACTTAAAAAATTATTAAA [XGTACX_site2469]", "gcPBM binding intensity (ln)": 6.13},
      {"sequence": "ATGGCATAAATATATGCACACACAAAAAAAAAAAAA [CACACA_site7902]", "gcPBM binding intensity (ln)": 9},
      {"sequence": "AAGGATAATAGGTACACATGCAATATTCATATATAC [TGCATGCA_site523]", "gcPBM binding intensity (ln)": 6.51},
      {"sequence": "AAAAATATAAATGACACACACTTAAAAACAAAGAAA [CACACA_site4540]", "gcPBM binding intensity (ln)": 6.73},
      {"sequence": "CTTATATATACGTGCACACATATATATAAGATATAT [CACACA_site1752]", "gcPBM binding intensity (ln)": 10.2},
      {"sequence": "TTTTATTCCGTTTCAAAATAAGAAAAAAAAAAAAAT [CACACA_negctrl_site1199]", "gcPBM binding intensity (ln)": 6.25},
      {"sequence": "TACTTCTCATTTGTTGTTGTATTTTAGGCATACCCT [XGTACX_negctrl_site385]", "gcPBM binding intensity (ln)": 6.88},
      {"sequence": "TTTCACACTATTTCATGTACACATAAAATTATATAT [XGTACX_site8692]", "gcPBM binding intensity (ln)": 6.89},
      {"sequence": "TAAATATAATAAAAGTGTACTTACACTTACATATAA [XGTACX_site1206]", "gcPBM binding intensity (ln)": 6.23},
      {"sequence": "ATATAATAAGGTTAAGCACACATATTACATATATAA [CACACA_site9110]", "gcPBM binding intensity (ln)": 6.45},
      {"sequence": "TTGTATATATTTCCTTGTACGTAATAATTCTTATTG [XGTACX_site3938]", "gcPBM binding intensity (ln)": 6.75},
      {"sequence": "AACAGATAAAAGGGTACACACATATATACATGTACA [CACACA_site225]", "gcPBM binding intensity (ln)": 6.39},
      {"sequence": "AATAATGAAAAATCAAATAACCTAAATTACAACTGT [XGTACX_negctrl_site65]", "gcPBM binding intensity (ln)": 6.47},
      {"sequence": "TTTTATTTATCATACACACACAGAAAAAAAAAAAAA [CACACA_site158]", "gcPBM binding intensity (ln)": 6.7},
      {"sequence": "CCTTTCCTTTTATAAGTGCATATAACAAATGTATAC [GTGCAC_site9872]", "gcPBM binding intensity (ln)": 8.03},
      {"sequence": "GAATGTTTATTATATGCATGTTATATATATGAATAT [TGCATGCA_site4]", "gcPBM binding intensity (ln)": 6.6},
      {"sequence": "TTATGATAATTTTGCACACACTTAGGAAAAATTATG [CACACA_site4949]", "gcPBM binding intensity (ln)": 10.9},
      {"sequence": "AAATAATATATATACACACACACATATATATATACA [CACACA_site554]", "gcPBM binding intensity (ln)": 6.82},
      {"sequence": "ACGTATATTTTTACATGTACATATGTAAAAAATTTT [XGTACX_site4587]", "gcPBM binding intensity (ln)": 6.52},
      {"sequence": "TGTTTTTCATAGTGCACACATAACCAAAAATAGTAT [CACACA_site3150]", "gcPBM binding intensity (ln)": 10.2},
      {"sequence": "AAATACTGTACAAAGGTGCATAAAAAGTGGGGCATA", "gcPBM binding intensity (ln)": 9.07},
      {"sequence": "TCAAAAGAAATAAAAACATGCATAAAAGTAAAAATA [TGCATGCA_site832]", "gcPBM binding intensity (ln)": 6.7},
      {"sequence": "TATATATATATGTGCGTGCACGTTACCTTGCTGTTT", "gcPBM binding intensity (ln)": 10.4},
      {"sequence": "AAATTTAACAACTTCAAACACACAATATATATATAT [CACACA_site2092]", "gcPBM binding intensity (ln)": 8.81},
      {"sequence": "TTTCCAAATACAACTACACACAAACAAAAGTTATAT [CACACA_site6544]", "gcPBM binding intensity (ln)": 6.86},
      {"sequence": "TTTCTTATTTTGGATTGTACGTATATTTTTCATTTT [XGTACX_site224]", "gcPBM binding intensity (ln)": 6.81},
      {"sequence": "AAAAAAAAAAAAAACACACACACAAATACAAATGGT [CACACA_site1721]", "gcPBM binding intensity (ln)": 6.94},
      {"sequence": "TATAATAATAATTATACATGCATGAATATTTATATG [TGCATGCA_site811]", "gcPBM binding intensity (ln)": 6.46},
      {"sequence": "AACAAAAAAAAAAAAAAAAAAAAAAAAAAAAAAATG [CACACA_negctrl_site1127]", "gcPBM binding intensity (ln)": 6},
      {"sequence": "AATAAAAAAAATAGCATACACACATATATACATATA [CACACA_site659]", "gcPBM binding intensity (ln)": 6.22},
      {"sequence": "ATGGACAAGTTAAACGCACACAAATATATACACCCA [CACACA_site8478]", "gcPBM binding intensity (ln)": 7.39},
      {"sequence": "TTATATTTCAATCATATTGTCACAAGTCATATTTAT [GTGCAC_negctrl_site366]", "gcPBM binding intensity (ln)": 6.19},
      {"sequence": "TTACACATGAGAAAATGTACATATAATAAAATATGT [XGTACX_site904]", "gcPBM binding intensity (ln)": 6.52},
      {"sequence": "TTTTTTAAATGTATTAAAATTATATATATATATATA [GTGCAC_negctrl_site570]", "gcPBM binding intensity (ln)": 9.23},
      {"sequence": "AATCAAAACAACAATAGTACATAAAAAAACAAAACA [XGTACX_site4181]", "gcPBM binding intensity (ln)": 6.91},
      {"sequence": "ATACATAAATTTAGAAGTACATAACAAATTTTTAAA [XGTACX_site7448]", "gcPBM binding intensity (ln)": 6.37},
      {"sequence": "TCCATATTTGTTCACACACACACATATTTATATATA [CACACA_site3570]", "gcPBM binding intensity (ln)": 7.04},
      {"sequence": "ATTAAATGTTATATTTGTACATATTATATATATATA [XGTACX_site5095]", "gcPBM binding intensity (ln)": 8.6},
      {"sequence": "TTCATTTTTTATTATAGTACACATAATATTTGCAGA [XGTACX_site4032]", "gcPBM binding intensity (ln)": 6.78},
      {"sequence": "TTTGTTATTTTTTATTGTACTTTTTTTCTTTCATAA [XGTACX_site4302]", "gcPBM binding intensity (ln)": 7.03},
      {"sequence": "ATATTTTTAGGTGATTATTATTCGGAGAAGCGAATT [CACACA_negctrl_site1097]", "gcPBM binding intensity (ln)": 6.2}
    ]}
  ]
}
